PubChem BioAssay AID1508624 (National Center for Advancing Translational Sciences (NCATS), 2021)
Among all 48,000 compounds or so, about 120 (0.25%) were called active. About 4% were inconclusive and are not listed. Calls come from the whole dose curve; as a rule, active = well fitted activation curve with a large enough effect; inconclusive = small, poorly fitted or top-dose-only effect, or another doubt; inactive = no such curve, though single readings can be large or run the other way. Some of the results follow.

Test: Primary qHTS for Identification of Small Molecule Activators of Huntingtin-Antisense Promoter Activity; note: nearly all actives have a fitted effect of over 55% in size
Settings: HEK293 HTT-AS promoter firefly luciferase reporter, 24 h; series mostly up to 57.5 µM; activity change, positive = activation: at the top concentration
In short: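 HEK293 luciferase promoter-reporter cells (2,500/well) plated 24 h, then compounds added at up to 57.5 uM final for 24 h at 37 °C. Firefly luminescence by Dual-Glo, normalized to vehicle (0%) and zero RLU (-100%).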

Activity change, positive = activation, inactive:
CCc1ccc(-n2c(SCC(=O)NC(C)CC)nc3n[nH]c(C)c3c2=N)cc1 (stereo not given) -33.5%
COc1ccc(N2CC(NC(=O)c3ccc4c(c3)OCO4)CC2=O)cc1OC (stereo not given) -11.1%
Cc1ccc(NC(=O)CN(C)S(=O)(=O)c2ccc3c(c2)CCC(=O)N3)c(C)c1 -6.16%
Cc1ccc(CN2CCCn3nc(C(=O)NCc4ccccc4Cl)cc3C2=O)cc1 -36.6%
CCCN1CCN(c2ncc3c(n2)CCN(Cc2ccc(OC)c(OC)c2OC)C3)CC1 -8.14%
Cc1ccc(NC(=O)Cn2nc(-c3ccc(F)cc3)c3cnc4ccc(C)cc4c32)cc1 2.77%
COc1ccccc1-c1noc(-c2ccc(N(C)Cc3ccccc3)c([N+](=O)[O-])c2)n1 -8.46%
COc1ccccc1C(=O)c1c(N)c(-c2nc(-c3ccccc3)cs2)c2ccccn12 -13%
CCCCN(CC)C(=O)CCn1c(=O)c2cccn2c2cccnc21 -8.17%
CCCCNC(=O)CN1C(=O)CSc2ccc(S(=O)(=O)N3CCC(C)CC3)cc21 -15.7%
CC(=O)c1cccc(N(C(=O)Cn2nnc3ccccc32)C(C(=O)NCc2ccccc2)c2ccc(F)cc2)c1 (stereo not given) -25.3%
COc1cc(NS(=O)(=O)c2ccc(N)cc2)nc(C)n1 0.808%
CSc1ncc(Cl)c(C(=O)Nc2nc3ccc(F)cc3s2)n1 3.32%
COc1cccc(NC(=O)CN(Cc2ccccc2)S(=O)(=O)c2ccc3nc(C)sc3c2)c1 -24.2%
CCOc1ccc(CNCc2c(C(=O)O)c(C)n(Cc3ccc(F)cc3Cl)c2C)cc1 -33.3%
CCN1CCN(C(=O)c2ccc3c(c2)N(Cc2ccccc2)C(=O)c2ccccc2S3=O)CC1 (stereo not given) -15%
Cc1nn(CCCC(=O)NCc2cccc(F)c2)c(=O)c2nn(-c3ccccc3)c(C)c12 1.53%
COc1ccc(OC)c(-c2nc(C(N)=O)c3c(n2)n(-c2ccc4c(c2)OCO4)c(=O)n3C)c1 -9.85%
CCOC(=O)c1c(S(=O)(=O)NCC(=O)Nc2ccc(Cl)c(C(F)(F)F)c2)c(C)n(C)c1C -40.9%
CCCCc1nn2c(=O)cc(COC(=O)c3cccc(NC(=O)c4cccc(C)c4)c3)nc2s1 -57.6%
CCOCCCNC(=O)Nc1cc(C(=O)NCc2ccc(C(C)C)cc2)ccc1N1CCCC1 -6.63%
CC(C)OCCCN(C)C1CCN(S(=O)(=O)c2csc(C(N)=O)c2)CC1 15.5%
COc1ccc(-n2c(C)nc3cc(C(=O)NC4CCCC4)ccc32)cc1 -18.6%
CSc1cccc(NC(=O)Cn2nc(C)c3sc4ccccc4c3c2=O)c1 8.68%
Cc1cccc(-c2nnc(SCC(=O)N3CCCc4ccccc43)o2)c1 -8.39%
COc1cc2c(cc1OC)C(COc1ccc(F)cc1)N(C(=O)c1ccccc1F)CC2 (stereo not given) -23.2%
CC(=O)c1ccc(C(=O)N(Cc2cccnc2)c2nc3c(Cl)cccc3s2)cc1 -37.6%
Cc1ccc(S(=O)(=O)c2nnn3c2nc(NCc2cccs2)c2sccc23)cc1C -12.3%
Cc1cc(C)cc(NC(=O)C2CCN(c3cc(C)nc4c(-c5ccc(Cl)cc5)c(C)nn34)CC2)c1 -4.79%
COC(=O)C(C)NC(=O)N1CCN(c2nnc(C)c3c(C)n(-c4ccc(Cl)cc4)nc23)CC1 (stereo not given) -2.02%
CCCCCCCCCCCCCCCC(=O)NCCO -2.88%
Cc1cccc(CS(=O)(=O)c2ncc(Cl)c(C(=O)Nc3nc4ccc(F)cc4s3)n2)c1 -16.1%
Cn1nnnc1SCCNCc1ccccc1OCc1ccc(Cl)cc1Cl -33.2%
COc1ccc(-n2c(SCC(=O)Nc3nnc(C)s3)nc3c([nH]c4ccccc43)c2=O)cc1 -23.6%
CCOC(=O)c1scc(-c2ccc(C)cc2)c1S(=O)(=O)Nc1cccc(CC)c1 -38.1%
CC(C)N(C(=O)c1cc2c(Cl)nc3ccccc3c2s1)C1CCCCC1 -10.7%
COc1cccc2sc(N3CCN(C(=O)CS(=O)(=O)c4ccc(Cl)cc4)CC3)nc12 -47.4%
COc1cccc(CNc2ncc(-c3ccc(Br)cc3)n2C)c1 -22.9%
Cc1cccc(C(=O)Nc2cc3c(cc2N2CCOCC2)n(C)c(=O)n3C)c1 0.477%
CCOC(=O)c1ccccc1Nc1cc(C)nc2nc(-c3ccco3)nn12 -18.5%
CCN1C(C(=O)c2ccccc2)=C(OC(=O)COc2ccccc2)c2ccccc2S1(=O)=O -36%
O=C(NCCCN1CCN(c2ccccc2)CC1)c1nnc(Cc2ccc(F)cc2)o1 -15.7%
Nc1c(-c2nc(-c3ccccc3)cs2)c2ccccn2c1C(=O)c1ccc2c(c1)OCO2 -2.7%
O=C(O)CC(NS(=O)(=O)c1ccc(Br)s1)c1ccccc1 (stereo not given) -9.01%
CCOc1ccc(NC(=O)Cn2cc(C(=O)c3ccc(C)cc3)c(=O)c3cc4c(cc32)OCCO4)cc1 -3.17%
Cc1cc(C)c(S(=O)(=O)N2CCN(Cc3nc4ccc(C)cc4o3)CC2)c(C)c1 -18.1%
CC1=C(C(=O)Nc2cc(C)ccc2C)C2(CCCCCC2)OC1=O -14.5%
CCc1ccccc1Nc1cc(C(=O)NCCc2ccccc2)c2ccccc2n1 -14.8%
COc1ccc(N2CCN(Cc3cc(=O)oc4ccc(OC)cc34)CC2)cc1 -14.1%
COc1ccccc1NC(=O)C1=C(C)Nc2nc3ccccc3n2C1c1cccc(Br)c1 (stereo not given) -28.7%
CCOC(=O)c1ccc2c(c1)N(Cc1cccc(C(F)(F)F)c1)C(=O)c1ccccc1S2(=O)=O -19.7%
O=C(Cn1c(=O)n(-c2ccc(F)cc2)c(=O)c2sc3ccccc3c21)NC1CCCCC1 -14.5%
CCCOc1ccc(Nc2cc(C)nc(C)n2)cc1 24.2%
COc1ccc(OC)c(CCNc2nccn(-c3ccc(C)c(C)c3)c2=O)c1 -16.2%
O=C(NCC(c1cccnc1)N1CCOCC1)C(=O)Nc1ccc(F)cc1 (stereo not given) 26.6%
CCCn1ccc2c(OCC(=O)Nc3ccccc3OCC)cccc2c1=O -38.3%
Cn1c(SCc2cccc(F)c2)nc2c([nH]c3ccccc32)c1=O -2.84%
COc1ccc(Cn2c(=O)[nH]c3cc(C(=O)N4CCN(c5ccccc5)CC4)ccc3c2=O)cc1 -9.45%
Cc1ccc(CNC(=O)CCC(=O)N2Cc3ccccc3Oc3ncccc32)cc1 -9.19%
O=C(Nc1ccc2nc(SCC(=O)N3CCCc4ccccc43)sc2c1)c1cccc(Cl)c1 -31.8%
COc1ccc(CCNC(=O)C2CCN(c3nc4ccccc4nc3C(F)(F)F)CC2)cc1OC 13.9%
COCCCNS(=O)(=O)c1ccc(N2CCCCS2(=O)=O)cc1 -5.54%
COc1ccc(C(=O)Oc2c(Sc3ccccc3)c(C)nn2-c2ccccc2)cc1OC -30.8%
Cc1ccc(NC(=O)CN2C(=O)CSc3ccc(S(=O)(=O)N4CCCC4)cc32)c(C)c1 -18.2%
COc1ccc(-c2noc(Cn3c(=O)c4ccccc4n(CC(=O)Nc4cccc(C(F)(F)F)c4)c3=O)n2)cc1 -33.4%
Cc1ccc(C)c(NS(=O)(=O)c2ccc3c(c2)n(C)c(=O)n3C)c1 -8.04%
CN1CCN(C2=Nc3cc(Cl)ccc3Nc3ccccc32)CC1
O=C(Cc1ccc(F)cc1)NCCc1csc(-c2cccc(F)c2)n1 -17.5%
CC(C)NC(=O)N1CCC(N2CCN(Cc3ccc(F)cc3)C(=O)C2=O)CC1 0.0927%
CCOc1ccc(N(CC)S(=O)(=O)N2CCCC(C(=O)NCc3ccc(Cl)cc3)C2)cc1 (stereo not given) -30.7%
CO[C@@H](C(=O)N1Cc2[nH]nc(NC(=O)c3ccc(N4CCN(C)CC4)cc3)c2C1)c1ccccc1 -28.5%
CCc1nc2onc(C)c2c(=O)n1CC(=O)O 1.95%
O=C(c1cccc(Cl)c1)N(Cc1ccco1)Cc1ccccc1Cl -35.8%
Cc1ccccc1-c1nc(CS(=O)(=O)CC(=O)Nc2cccc(C(F)(F)F)c2)c(C)o1 -28.5%
COc1ccc2c(c1)c1c(c(=O)n(Cc3ccccc3)c(=O)n1CC(=O)Nc1c(C)cccc1C)n2C -7.08%
Cc1ccc(S(=O)(=O)NCCc2sc3nc(-c4ccccc4)nn3c2C)cc1C -0.566%
CCn1c(SCC(=O)N2CCC(C)CC2)nnc1-c1ccccc1O -4.69%
Cc1oc(-c2cccc(Br)c2)nc1Cn1c(=O)cc(-c2ccccc2)c2c(C)nn(C)c21 -9.81%
Cc1ccc(CNC(=O)c2oc3ccc(S(=O)(=O)N4CCC(C)CC4)cc3c2C)cc1 -26.5%
Cc1cccc(OCC(=O)Nc2ccc3nc(Nc4cccc(C(F)(F)F)c4)cc(C)c3c2)c1 -43.1%
COc1ccccc1CNC(=O)c1ccc2c(c1)N(Cc1cc(C)ccc1C)C(=O)c1ccccc1S2 -16.9%
CCCCNC(=O)c1cc2c(=O)n3cccc(C)c3nc2s1 27%
COc1ccc(NC(=O)C2=C(C)C(=O)OC23CCN(C(C)C)CC3)cc1Cl -18.9%
Cc1ccccc1NC(=O)CSc1nc2ccc(NC(=O)c3ccccc3)cc2s1 -5.69%
CC(=O)OCc1cnc(C)c2oc(=O)c(C(=O)Nc3ccc(C)cc3Cl)cc12 -12.7%
CCN(CCO)CCCOc1ccc2c(Nc3cc(CC(=O)Nc4cccc(F)c4)[nH]n3)ncnc2c1 -10.4%
CC1CCC(Nc2ncnc3onc(-c4ccc(Cl)cc4)c23)CC1 (stereo not given) -31%
COc1ccc(-c2coc3c2c(C)cc2oc(=O)c(C)c(C)c23)cc1 -3.36%
Cc1ccccc1CN1C(=O)C(O)(CC(=O)c2ccccc2)c2cc(Cl)ccc21 (stereo not given) -31.8%
Cc1oc(-c2ccc(C(=O)NCc3ccc(F)cc3)cc2)nc1CS(=O)c1ccccc1 (stereo not given) -24.7%
CCOc1ccc(/C=C/c2nc(C#N)c(NC3CCCCC3)o2)cc1 -2.69%
CC(=O)c1cc2c(cc1N/C(=N/S(=O)(=O)c1ccccc1)c1ccc(Cl)cc1)OCO2 -14.8%
Cc1cc(C)cc(C(=O)Nc2c(C(=O)Nc3ccccc3F)oc3ccccc23)c1 -9.88%
COc1ccccc1OCCn1c(C(C)Oc2ccccc2)nc2ccccc21 (stereo not given) -36.4%
CCN(CC)CCNC(=O)c1ccc(-c2nc(CS(=O)(=O)c3ccc(C)cc3)c(C)o2)cc1 -16.1% [at 11.5 µM, percent change from vehicle, -100% = no light]
